Test results: PubChem BioAssay AID485344 (National Center for Advancing Translational Sciences (NCATS), 2010)
The whole screen tested about 340,000 compounds, of which about 6,900 (2%) were called active. Rule as the data show it: active = inhibition above about 30%; inactive = below that, where a call was filed. This is a selection; strong and weak results do not stand in their true shares. Entries without a call were filed so in the source.

What follows are molecules tested against D(2) dopamine receptor (Homo sapiens) (UniProt P14416) (assay: HTS Assay for Allosteric Antagonists of the Human D2 Dopamine Receptor: Primary Screen for Antagonists). Details: HEK293 TREx D2 cells, calcium flux, dopamine EC80; at 10 µM; stronger effect = higher value.
Sequence of UniProt P14416 (P14416 whole entry, looked up): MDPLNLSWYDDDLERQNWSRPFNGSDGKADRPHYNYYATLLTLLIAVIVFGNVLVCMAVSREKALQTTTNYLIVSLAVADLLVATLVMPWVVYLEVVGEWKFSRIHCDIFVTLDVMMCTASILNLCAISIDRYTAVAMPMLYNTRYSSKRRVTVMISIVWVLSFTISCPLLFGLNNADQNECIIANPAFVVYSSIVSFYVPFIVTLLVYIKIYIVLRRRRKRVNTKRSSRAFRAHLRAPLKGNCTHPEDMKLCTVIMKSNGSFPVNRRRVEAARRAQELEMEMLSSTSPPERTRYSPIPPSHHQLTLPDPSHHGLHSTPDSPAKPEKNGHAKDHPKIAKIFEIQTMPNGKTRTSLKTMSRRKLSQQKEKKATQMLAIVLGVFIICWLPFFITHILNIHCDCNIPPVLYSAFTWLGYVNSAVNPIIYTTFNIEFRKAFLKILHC
How it was run: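 Calcium mobilization kinetics were recorded at 1 s intervals in tetracycline-induced HEK293 T-REx D2 cells, first for 180 s after compound addition and then 180 s after EC80 dopamine.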
Also: 0% is about no effect.

| Compound | inhibition |
| --- | --- |
| CCOc1c(Cl)cc(C(=O)NCCN2CCCCC2)cc1Cl | active: 33.7% |
| COc1cccc(NC(=O)c2csc3c2CCCCC3)c1 | 1.75% |
| O=C(NCc1ccccc1Cl)c1cc(-c2ccccc2)n[nH]1 | 5.1% |
| COCCn1c(CCC(=O)Nc2ccc(OC)c(OC)c2)nc2cccnc21 | 2.63% |
| O=C(Cn1c2ncccc2c(=O)n1-c1ccccc1)NCc1ccccc1 | 6.88% |
| O=C(CS(=O)(=O)c1nc(-c2ccc(Cl)cc2)cn1-c1ccccc1)Nc1cccc(Cl)c1 | 15.1% |
| Cc1nc(-c2ccccc2)sc1-c1ccc(SCC(=O)Nc2ccccc2)nn1 | 11.3% |
| Cc1oc(-c2cccc(Br)c2)nc1CN1CCC(C(=O)NCc2ccccc2)CC1 | 10% |
| Cc1ccc(NC(=O)c2ccc(F)c(S(=O)(=O)NCCc3ccccc3)c2)cc1F | 1.67% |
| O=C(c1ccc2c(c1)N(Cc1ccccc1F)C(=O)c1ccccc1S2=O)N1CCC(Cc2ccccc2)CC1 (stereo unspecified) | -3.98% |
| Brc1ccc(CN2CCc3nc(Nc4ccccc4)ncc3C2)s1 | 3.61% |
| COc1ccc(OC)c(CNC(=O)c2cc3c(=O)oc4ccc(C)cc4c3s2)c1 | -1.75% |
| Cc1ccc(Cl)cc1NC(=O)Cn1nnc2sc3c(c2c1=O)CCC(C(C)(C)C)C3 (stereo unspecified) | 10.1% |
| COc1ccc(CCNc2ncnc3c2cnn3-c2ccc(F)cc2)cc1 | 5.2% |
| CCOC(=O)c1cc(-c2ccc(F)cc2)n(CCC(=O)Nc2nc3cc(C)c(C)cc3s2)c1C | -2.56% |
| CCOc1ccc(-n2c(-c3ccc(Br)cc3)cc3c2CC(C)(C)CC3=O)cc1 | -8.06% |
| Cc1nnc2c3ccccc3nc(Nc3ccc(F)cc3Cl)n12 | 8.06% |
| Cc1nc(N2CCCC2)ncc1C(=O)Nc1ccc(OC(F)(F)F)cc1 | 5.35% |
| COc1ccc(OCc2ccc(-c3nc(C#N)c(NCc4ccc(F)cc4)o3)o2)cc1 | -17.8% |
| OCCN1CCN(c2ncnc3c2cnn3-c2cccc(Cl)c2)CC1 | 18.2% |
| COc1cc(OC)cc(-n2c(=O)c3sccc3n(Cc3cc(=O)n4c(C)cccc4n3)c2=O)c1 | 13.7% |
| COc1cccc(CNC(=O)Nc2cn(CC(C)C)c(=O)c3ccccc23)c1 | 11% |
| COc1ccc(-c2oc3ncn4nc(-c5ccccc5OC)nc4c3c2-c2ccc(OC)cc2)cc1 | 4.02% |
| Cc1cc2nn(-c3ccc(F)cc3)nc2cc1NC(=O)c1ccc(C(C)(C)C)cc1 | 6.61% |

| Compound | inhibition |
| --- | --- |
| CCCOc1ccc(C2C(=O)N(C3CCCCCC3)CC(=O)N2C(C)C)cc1OC (stereo unspecified) | -13.9% |
| S=c1[nH]nc(COc2ccccc2)n1/N=C/c1ccccc1Br | active: 38.1% |
| COc1cc(CN(C(=O)c2ccccc2)c2ccccn2)cc(OC)c1OC | 13.6% |
| COc1ccc2c(c1)c(=O)c(C(=O)c1ccc(F)cc1)cn2CC(=O)Nc1ccc2c(c1)OCCO2 | 0.0882% |
| COc1ccc(-c2cn3cccnc3n2)cc1NC(=O)c1ccccc1C(F)(F)F | 10.3% |
| O=C(CC(c1ccccc1)c1cc(Br)ccc1O)NCCN1CCOCC1 (stereo unspecified) | active: 77% |
| Cn1c(CNC(=O)CSc2nc(-c3ccccc3F)nc3cc(=O)[nH]n23)nc2ccccc21 | -2.37% |
| CC(C)c1ccc(-c2noc(SCC(=O)N3CCN(c4ccccc4F)CC3)n2)cc1 | -6% |
| O=C(NCc1cccs1)c1ccc2c(c1)sc1nc(-c3ccccc3)cn12 | -27.9% |
| Cc1c(C(=O)N2CCC(C(=O)Nc3ccc(F)c(Cl)c3)CC2)sc2nc[nH]c(=O)c12 | 19.1% |
| Cc1ccc(NC(=O)Cn2c(=O)ccc3cc(S(=O)(=O)N4CCCC4)ccc32)cc1C | -4.47% |
| COc1ccc(CCNc2ccc(S(=O)(=O)N3CCN(C)CC3)cc2[N+](=O)[O-])cc1 | active: 64.7% |
| Cc1cn2c(=O)cc(COC(=O)COc3ccc(C)c(C)c3)nc2s1 | 8.59% |
| CCCOc1ccc(C(=O)N(Cc2ccc(Cl)cc2)Cc2ccco2)cc1 | -11.1% |
| Cc1ccc(CNC(=O)c2ccc3c(c2)NC(=O)C(CS(=O)(=O)Cc2cccc(C)c2)N3)cc1 (stereo unspecified) | 10.8% |
| COc1cc(NC(=O)CCS(=O)(=O)c2ccc(Br)cc2)cc(OC)c1 | -4.22% |
| CCCCN(C)C(=O)CN1C(=O)c2cccnc2Oc2ccc(Cl)cc21 | -1.04% |
| COc1cc(C(=O)Nc2cc(C)c(O)c(-c3nc4cc(Cl)ccc4o3)c2)cc(OC)c1OC | 4.55% |
| CCN(CC)C(=O)c1sc2c(c1C)c(=O)n(-c1ccccc1)c(=O)n2CC(=O)N(CC)c1cccc(C)c1 | 5.53% |
| Oc1ccc(C2=NN(c3ccccc3)C(c3ccc(F)cc3)C2)cc1 (stereo unspecified) | active: 32.9% |
| CCOC(=O)CSc1nnc(-c2ccc(OC)cc2)o1 | 12.9% |
| COc1cccc(-c2nc3c(C#N)c[nH]n3c2NC2CCCCC2)c1 | -4.25% |
| COc1ccc(-c2csc3ncnc(Nc4ccc(OC)cc4OC)c23)cc1 | 12.9% |
| CCc1cccc(NC(=O)Cn2c(=O)n(CC3CCC(C(=O)NC)CC3)c(=O)c3sccc32)c1 (stereo unspecified) | 7.94% |

| Compound | inhibition |
| --- | --- |
| COc1cccc(CNC(=O)CN(c2ccc(C)cc2)S(=O)(=O)N(C)C)c1OC | -5.14% |
| COc1cccc(CNC(=O)Cn2c(=O)cc(C)c3c(C)nn(C)c32)c1OC | 15.6% |
| O=C(NC1CCCCC1)c1ccc2c(c1)N(Cc1ccc(F)cc1)C(=O)c1ccccc1S2(=O)=O | -0.362% |
| COc1cc(NS(=O)(=O)c2cc(Br)cc3c2N(C(C)=O)C(C)C3)cc(OC)c1 (stereo unspecified) | -1.15% |
| N#CC1=C(N)N(c2ccc(Cl)cc2)C2=C(C(=O)CCC2)C1c1cc(CN2CCOCC2)cs1 (stereo unspecified) | 2.3% |
| Cc1cccc(N(C)C(=O)C2CCC(CNS(=O)(=O)c3cccc4nsnc34)CC2)c1 (stereo unspecified) | -1% |
| Cn1c(C(=O)NCc2ccccc2Cl)cc2sc(Cl)cc21 | -14.3% |
| Cc1ccc(OCCn2c(CNc3ccccc3C)nc3ccccc32)cc1 | 8.7% |
| Cc1cc(NC(=O)c2cnn(-c3ccccc3)c2-n2cccc2)ccc1Br | 11.3% |
| O=C(Nc1ccc(F)cc1)c1nc(SCc2ccccc2F)ncc1Cl | 12.7% |
| COc1ccc(-c2nsc(NC(=O)c3oc4ccc(Cl)cc4c3C)n2)cc1 | 5.21% |
| CCOc1ccccc1-n1c(N)c(C(=O)OC)c2nc3ccccc3nc21 | 16.8% |
| Cc1cccnc1NC(=O)CSc1ccc2c(c1)OCCO2 | active: 32.1% |
| N#C/C(=C/c1ccc(O)cc1)c1nc(-c2ccc(-c3ccccc3)cc2)cs1 | 1.86% |
| Cc1nc(-c2cccc(F)c2)sc1CCNC(=O)Cc1ccc(F)cc1 | 21.5% |
| CCCSC1=NC2(CCN(C(=O)NC3CCCCC3)CC2)N=C1c1ccc(OC)cc1 | -5.89% |
| O=c1c2c3c(sc2nnn1CCCCOc1ccc(Cl)cc1)CCCC3 | 11.5% |
| COc1cc(-c2noc(-c3cc4cccc(C)c4oc3=O)n2)cc(OC)c1OC | 7.52% |
| Brc1cccc(-c2nn(-c3ccccc3)c3c2cnc2cc4c(cc23)OCO4)c1 | 13.3% |
| CCc1cccc(C)c1NC(=O)C1CCN(S(=O)(=O)c2cc(Br)cc3c2N(C(C)=O)CC3)CC1 | -20.5% |
| COc1ccc(NC(=O)Nc2cccc(-c3noc(C)n3)c2)cc1 | 5.4% |
| COCCn1c(CNC(=O)c2ccccc2C)nc2cccnc21 | 13.2% |
| COc1cccc(-n2ccnc2SCC(=O)Nc2cccc3ccccc23)c1 | 17.5% |
| COc1ccc(-n2c(CC3C(=O)Nc4ccc(C)cc43)nc3ccccc3c2=O)cc1 (stereo unspecified) | -1.41% |

| Compound | inhibition |
| --- | --- |
| O=C(NCc1ccccc1Cl)c1ccc2c(c1)ncn2-c1cccc(F)c1 | -2.74% |
| Cc1ccc(CNC(=O)C2CCCN(c3nc4ccccc4n4cccc34)C2)cc1 (stereo unspecified) | -17.6% |
| COc1ccc(C(C)NC(=O)CN(c2cc(OC)ccc2OC)S(=O)(=O)c2ccccc2)cc1 (stereo unspecified) | 6.45% |
| CC1CCN(CCCNC(=O)CN2C(=O)CSc3ccc(S(=O)(=O)N4CCCCC4)cc32)CC1 | 19.7% |
| O=S(=O)(Cc1ccccc1)N1CCC(N2CCN(c3ccccc3)CC2)CC1 | active: 88.6% |
| CCCSc1nc2sc3c(c2c(=O)n1-c1ccc(C)cc1)CCCC3 | -3.03% |
| Cc1nc([N+](=O)[O-])c(Br)n1CC(=O)c1ccc(F)cc1 | active: 33.6% |
| CCOC(=O)c1c(S(=O)(=O)NCC(=O)Nc2cccc(SC)c2)c(C)n(C)c1C | 12.5% |
| CN(C)c1ccc(/C=N/NC(=O)C(O)(c2ccccc2)c2ccccc2)o1 | active: 32.6% |
| COc1ccc(NC(=O)CCCS(=O)(=O)c2nc(-c3ccccc3OC)cc(C(F)(F)F)n2)c(OC)c1 | -3.01% |
| CC1=C(c2ccc(C(C)C)cc2)S(=O)(=O)NC1=NCc1ccc(OC(C)C)cc1 | -15.2% |
| CCc1ccc(NCc2cc3cc4c(cc3n(CC(=O)Nc3ccc(OC)cc3)c2=O)OCO4)cc1 | -19% |
| CCc1ccc(C2c3c(-c4cc(C)ccc4O)n[nH]c3C(=O)N2CCO)cc1 (stereo unspecified) | 11.5% |
| Cc1ccccc1-c1noc(-c2cccnc2NCc2ccco2)n1 | 12.8% |
| CCOC(=O)c1c(C)[nH]c(C)c1S(=O)(=O)N1CCC(C(=O)N2CCN(c3cccc(Cl)c3)CC2)CC1 | 19.6% |
| O=C(NCc1ccccc1Cl)C1CCCN(S(=O)(=O)c2cccc3nsnc23)C1 (stereo unspecified) | -2.94% |
| CC(C)CCN1CCN(Cc2cccc3nonc23)CC1CCO (stereo unspecified) | active: 54.2% |
| COc1ccc(C2=NS(=O)(=O)N(C)C(C(=O)N3CCC(C(N)=O)CC3)=C2)cc1 | active: 35.3% |
| COc1ccc(OC)c(CNC(=O)c2c3c(nc4ccccc24)C(=O)N(C2CCCCC2)C3)c1 | 9.13% |
| CCC(=O)N1CCc2cc(Br)cc(S(=O)(=O)N3CCN(c4ccc(C)cc4)C(C)C3)c21 (stereo unspecified) | -12.7% |
| C/C(=N\N=C1/SC(CC(=O)O)C(=O)N1c1ccccc1)c1ccc(C)cc1 (stereo unspecified) | active: 30.1% |
| CCOC(=O)c1c(C)[nH]c(C)c1S(=O)(=O)N1CCC(C(=O)N2CCN(c3ccccc3)CC2)CC1 | 9.75% |
| CCCN(CCC)CC(O)Cn1cc(/C=C/C(=O)c2ccc(C)cc2)c2ccccc21 (stereo unspecified) | -13.9% |
| COc1ccc(NC(=O)CN2CCN(Cc3ccc(F)cc3)S2(=O)=O)cc1Cl | 12.9% |
